Data published in PubChem BioAssay AID2147 (National Center for Advancing Translational Sciences (NCATS), 2009).
Where “and” joins values, the source holds several entries; their conditions need not be identical. Equal values may be shown once. Out of some 230,000 compounds screened, about 3,600 (1.6%) were called active. The inconclusive results got no clear call from the source; some entries with a clear call stand among them for comparison. Calls come from the whole dose curve; as a rule, active = well fitted inhibition curve with a large enough effect (not every such curve was filed as active); inconclusive = small, poorly fitted or top-dose-only effect, or another doubt; inactive = no such curve, though single readings can be large or run the other way. A potency beside an inconclusive call is a rough fit, not a confirmed value.

Target: Lysine-specific demethylase 4E (Homo sapiens) (UniProt B2RXH2)
Experiment: qHTS Assay for Inhibitors of Human Jumonji Domain Containing 2E (JMJD2E)
Settings: JMJD2E catalytic domain, FDH-coupled NADH fluorescence (FDH is formaldehyde dehydrogenase); series mostly up to 57.1 µM; activity change, negative = inhibition: at the top concentration
Note: nearly all actives have a fitted effect of over 50% in size.
Potency is the fitted concentration of half-maximal effect; tags give direction and shape of the fitted curve.
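Throughout, for activity change, negative = inhibition: 0% = wells with enzyme and -100% = buffer wells without enzyme.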

Sequence of UniProt B2RXH2 (B2RXH2 whole entry, looked up, the tested form may be a part): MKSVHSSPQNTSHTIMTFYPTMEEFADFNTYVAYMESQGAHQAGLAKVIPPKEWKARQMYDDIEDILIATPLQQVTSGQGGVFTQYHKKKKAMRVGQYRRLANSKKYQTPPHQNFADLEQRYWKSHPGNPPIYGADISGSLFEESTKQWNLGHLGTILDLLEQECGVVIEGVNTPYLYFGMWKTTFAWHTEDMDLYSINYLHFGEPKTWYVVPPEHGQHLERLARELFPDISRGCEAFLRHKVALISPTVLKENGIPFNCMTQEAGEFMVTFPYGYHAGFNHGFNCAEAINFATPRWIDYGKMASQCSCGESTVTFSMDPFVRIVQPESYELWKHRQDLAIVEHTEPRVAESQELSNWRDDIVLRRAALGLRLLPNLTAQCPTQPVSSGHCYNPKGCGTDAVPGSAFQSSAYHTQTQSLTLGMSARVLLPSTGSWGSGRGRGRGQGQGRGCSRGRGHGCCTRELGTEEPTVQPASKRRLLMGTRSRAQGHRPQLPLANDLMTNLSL

Row | Compound | Potency | activity change, negative = inhibition
1 | Nc1cc(Cl)ccc1C(=O)OCC(=O)NC(=O)NCc1ccccc1 | inconclusive: 25.1 µM [inhibitor, partial curve] | –
2 | O=C(CSc1nnc(CN2CCOCC2)n1-c1ccccc1)Nc1ccc(Cl)cc1 | – | inactive: 6.56%
3 | CNC(=S)N(Cc1ccco1)Cc1cc2cc3c(cc2[nH]c1=O)OCCO3 | inconclusive: 31.6 µM [inhibitor, partial curve] | –
4 | CC1CCC(C(C)C)C2=C1C(C#N)(C#N)C(C#N)(C#N)C(c1ccccc1)N2 (stereo unspecified) | inconclusive: 31.6 µM [inhibitor, single point] | –
5 | CCCNC(=S)N1CCN(CC)CC1 | inconclusive: 31.6 µM [inhibitor, single point] | –
6 | COc1cc(/C=N/n2cnnc2)ccc1OCC(=O)N1CCOCC1 | inconclusive: 25.1 µM [inhibitor, single point] | –
7 | COc1cccc(/C=C2\SC(=S)NC2=O)c1OS(=O)(=O)c1ccc(NC(C)=O)cc1 | – | inactive: 13.2%
8 | COc1ccc(C2C=C(c3ccc(C)cc3)Nc3ncnn32)cc1 (stereo unspecified) | inconclusive: 28.2 µM [inhibitor, partial curve] | –
9 | CC(=O)c1cc2cc(O)ccc2o1 | inconclusive: 25.1 µM [inhibitor, partial curve] | –
10 | Clc1ccc2nnc(Cl)n2n1 | inconclusive: 25.1 µM [inhibitor, partial curve] | –
11 | CCOC(=O)C1(Cc2ccccc2Cl)CCN(S(=O)(=O)N(C)C)CC1 | – | inactive: -12.5%
12 | Oc1[nH]c2ccccc2c1N=Nc1nncc2ccccc12 | inconclusive: 28.2 µM [inhibitor, single point] | –
13 | CN1C(C(=O)Nc2ccccn2)=C(O)c2ccccc2S1(=O)=O | inconclusive: 15.8 µM [inhibitor, full curve, poor fit] and inconclusive: 25.1 µM [inhibitor, single point] and inconclusive: 31.6 µM [inhibitor, single point] | –
14 | COCCCNC(=S)NNC(=S)Nc1ccccc1 | – | inactive: -3.05%
15 | Cc1ccc(-n2c(SCC(=O)NCc3ccco3)nc3sc4c(c3c2=O)CC(C)(C)SC4)cc1 | inconclusive: 39.8 µM [inhibitor, single point] | –
16 | Cc1onc(-c2ccccc2)c1CNS(=O)(=O)c1ccccc1[N+](=O)[O-] | – | inactive: 3.44%
17 | NCCS | inactive | –
18 | CC(=O)c1ccc(N2CCN(c3ncc(C(F)(F)F)cc3Cl)CC2)cc1 | – | inactive: -19%
19 | COc1ccc(N2CSC3=C(C#N)C(c4cccs4)CC(=O)N3C2)cc1 (stereo unspecified) | – | inactive: 2.07%
20 | O=C(NNC(=S)Nc1ccccc1)Nc1ccccc1 | inconclusive: 31.6 µM [inhibitor, single point] | –
21 | O=C(O)c1cc(Br)ccc1NN=C1CCCCC1 | inconclusive: 35.5 µM [inhibitor, single point] | –
22 | O=C(O)c1cc2cc(Cl)ccc2oc1=O | inconclusive: 15.8 µM [inhibitor, partial curve] | –
23 | O=c1c2ccccc2c(-c2ccc(F)cc2)nn1-c1ccc(C(F)(F)F)cc1 | inconclusive: 39.8 µM [inhibitor, single point] | –
24 | CCC(C(=O)NCc1ccc(F)cc1)N(Cc1ccco1)C(=O)c1snc(C(N)=O)c1N (stereo unspecified) | inconclusive: 25.1 µM [inhibitor, single point] | –

Row | Compound | Potency | activity change, negative = inhibition
25 | COCCCNC(=O)c1cc2c(=O)n3cccc(C)c3nc2n(C(C)C)c1=N | inconclusive: 3.55 µM [inhibitor, full curve] | –
26 | Cc1ccc(OCCCn2ccnc2)cc1C | – | inactive: 5.21%
27 | O=C1C2C3C=CC(C3)C2C(=O)N1Nc1c(Cl)cc(Cl)cc1Cl (stereo unspecified) | – | inactive: 7.58%
28 | Nc1ncnc2c1[nH]c(=O)n2C1CC(O)C(CO)O1 (stereo unspecified) | – | inactive: 3.94%
29 | CC(=O)C1=C(C)NC(SCC(N)=O)=C(C#N)C1c1cccnc1 (stereo unspecified) | – | inactive: -15.9%
30 | COc1ccc(-c2nn(CC(=O)N3CCCCC3)c(=O)c3ccccc23)cc1 | inconclusive: 10 µM [inhibitor, partial curve, poor fit] | –
31 | CN1CCN(c2nc(-c3ccc(N(C)C)cc3)nc3ccccc23)CC1 | inconclusive: 0.891 µM [inhibitor, single point] | –
32 | O=C(NC1CCCCC1)c1cc(-c2ccco2)on1 | – | inactive: 1.24%
33 | COCc1[nH]nc2c1C(c1ccc(OC)c(OC)c1)C(C#N)=C(N)O2 (stereo unspecified) | – | inactive: -2.9%
34 | COc1ccc(C2CC(=O)c3cnc(Nc4cc(C)cc(C)c4)nc3C2)cc1 (stereo unspecified) | inconclusive: 35.5 µM [inhibitor, single point] | –
35 | CC1(OC(=O)C2CCCC2)C(=O)C=C2C=C(c3ccsc3)N(Cc3ccco3)C=C2C1=O (stereo unspecified) | inconclusive: 25.1 µM [inhibitor, single point] and inconclusive: 3.55 µM [inhibitor, partial curve] | –
36 | O=C(CN1CCN(Cc2ccc(Cl)cc2)CC1)N/N=C/c1ccncc1 | – | inactive: 8.43%
37 | COc1ccc2nc(NC(=O)c3sc4nc(C)cc(C)c4c3N)sc2c1 | inconclusive: 1.26 µM [inhibitor, partial curve] | –
38 | Cc1cccc(-n2c3nc(=O)[nH]c(=O)c-3cc3cc([N+](=O)[O-])ccc32)c1 | inconclusive: 28.2 µM [inhibitor, single point] | –
39 | CCOC(=O)c1nc2sc3c(c2c(=O)n1C(C)C(=O)OCC)CCCC3 (stereo unspecified) | inconclusive: 28.2 µM [inhibitor, partial curve] | –
40 | O=C1/C(=C/c2ccco2)SC(=S)N1CC1CCCO1 (stereo unspecified) | active: 11.2 µM | –
41 | COc1ccc2c(c1)C(=O)CC(c1ccccc1F)O2 (stereo unspecified) | inconclusive: 25.1 µM [inhibitor, partial curve] | –
42 | S=c1[nH]c2ccc(Cl)cc2[nH]1 | – | inactive: 3.34%
43 | Nc1nc(Br)c2ccccc2c1-c1ccccc1 | inconclusive: 31.6 µM [inhibitor, single point] | –
44 | CCOC(=O)c1c(C)nc2sc3c(=O)[nH]cnc3c2c1-c1ccc(OC)cc1 | inconclusive: 17.8 µM [inhibitor, partial curve] | –
45 | Cc1cccc(CSc2nc3c(cc2C#N)CCC3)c1 | – | inactive: 4.76%
46 | COC(=O)[C@@]1(Cc2ccccc2)[C@H]2c3cc(C(=O)N4CCCC4)n(Cc4c(CO)[nH]cc(C)c4=O)c3C[C@H]2CN1C(=O)c1ccccc1 | inconclusive: 35.5 µM [inhibitor, single point] | –
47 | CCN(CC)C(=O)CSc1ncccc1-c1nc2ccccc2[nH]1 | inconclusive: 28.2 µM [inhibitor, partial curve] | –
48 | CCC(C)(C)C(=O)OC1CC(C)C=C2C=CC(C)C(CCC3CC(O)CC(=O)O3)C21 (stereo unspecified) | inconclusive: 39.8 µM [inhibitor, single point] | –

Row | Compound | Potency | activity change, negative = inhibition
49 | Cc1onc(-c2c(F)cccc2Cl)c1C(=O)Nc1nc2ccccc2[nH]1 | inconclusive: 39.8 µM [inhibitor, single point] | –
50 | COCCn1c(NC(=S)NC(=O)C2CC2)cc(=O)[nH]c1=O | – | inactive: -13.4%
51 | CCCn1c(=NC(=O)c2ccco2)c(C(=O)OCC)cc2c(=O)n3ccccc3nc21 | inconclusive: 31.6 µM [inhibitor, partial curve] | –
52 | COc1ccc2nc(NC(=O)CSc3nnnn3C)sc2c1 | inconclusive: 39.8 µM [inhibitor, single point] | –
53 | NNC(=O)c1cc(-c2cccs2)nc2ccccc12 | inconclusive: 25.1 µM [inhibitor, partial curve] | –
54 | COCCNCCOc1ccccc1-c1ccccc1 | inconclusive: 31.6 µM [inhibitor, single point] | –
55 | N#Cc1cc([N+](=O)[O-])ccc1NC(=O)COC(=O)C12CC3CC(CC(C3)C1)C2 | – | inactive: -0.673%
56 | Cc1cccn2c(CN3CCCN(C=O)CC3)c(C(=O)N(C)CCc3ccccc3)nc12 | inconclusive: 25.1 µM [inhibitor, single point] | –
57 | COc1ccc(Nc2nnc(-c3ccc(O)cc3)c3ccccc23)cc1C(N)=O | – | inactive: -3.82%
58 | CCOCCCNC(=S)NCCCNc1nc2c(C)cc(C)cc2cc1C#N | inconclusive: 31.6 µM [inhibitor, partial curve] | –
59 | CNc1cc([N+](=O)[O-])ccc1N/C=C/C(=O)c1cccs1 | – | inactive: -1.31%
60 | O=[N+]([O-])c1cccc(C2Nc3cccc4cccc(c34)N2)c1 | inconclusive: 8.91 µM [inhibitor, single point] | –
61 | Nc1cc2sc(-c3ccc(C(=O)O)cc3)nc2cc1Cl | inconclusive: 17.8 µM [inhibitor, partial curve] | –
62 | Cc1ccc2c(n1)sc1c(-c3ccc(Br)cc3)c(C#N)c(N)nc12 | inconclusive: 3.16 µM [inhibitor, full curve] | –
63 | CC1(C)CC(=O)C2=C(C1)OC(N)=C(C#N)C21CCC2(CC1)OCCO2 | inconclusive: 35.5 µM [inhibitor, single point] | –
64 | O=C(O)CCCNc1ccc(S(=O)(=O)Nc2ccccc2C(=O)O)cc1C(=O)O | inconclusive: 25.1 µM [inhibitor, partial curve] | –
65 | C=CCNc1nnc(SC2CC(=O)N(c3ccc(OC)cc3)C2=O)s1 (stereo unspecified) | – | inactive: -4.33%
66 | CCSc1ccccc1C(=O)Nc1cccnc1 | – | inactive: 4.79%
67 | CCC(C)C(NC(=O)c1ccccc1NC(=O)c1ccco1)C(=O)NC1CCCCC1 (stereo unspecified) | inconclusive: 39.8 µM [inhibitor, single point] | –
68 | c1ccc(-c2nc(N3CCOCC3)c3ccccc3n2)nc1 | – | inactive: 3%
69 | O=C(CCn1nc(-c2ccc(Cl)cc2)ccc1=O)NCc1cccnc1 | inconclusive: 39.8 µM [inhibitor, single point] | –
70 | O=c1oc2ccccc2cc1-c1ccccc1 | inconclusive: 25.1 µM [inhibitor, partial curve] | –
71 | FC(F)(F)c1nc(-c2cccs2)ncc1-c1nnnn1-c1ccc(Cl)cc1 | inconclusive: 28.2 µM [inhibitor, partial curve] | –
